Experimental data: a collection of fitness landscapes (doi:10.1016/j.celrep.2020.107928)
The full ranking holds about 81,000 sequences; the median of “one-hybrid fitness for binding parS DNA” is about -0.17, and the highest 2% start at about 0.51. Some of the results follow.

B1: Caulobacter ParB omega fusion; a variant is named by its letters at X, in order, B8GW30 (parent)
chain: MESVVVGEPGMSEGRRGLGRGLSALLGEVDAAPAQAPGEQLGGSREAPIEILQRNPDQPRRTFREEDLEDLSNSIREKGVLQPILVRPSPDTAGEYQIVAGERAWRAAQRAGLKTVPIMVRELDDLAVLEIGIIENVQRADLNVLEEALSYKVLMEKFERTQENIAQTIGKSXSHVANXMRLLXLPDEVQSYLVSGELTAXHARAIAAAADPVALAKQIIEGGLSVRETEALARKAPNLSAGKSKGGRPPRVKDTDTQALESDLSSVLGLDVSIDHRGSTGTLTITYATLEQLDDLCNRLTRGI

Variants of: B1
Assay: one-hybrid fitness for binding parS DNA (scaled: cognate 1, non-cognate 0); higher = stronger binding
Conditions: with parS DNA site
Outline: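 On M9-minus-histidine containing 0.1 mM IPTG and 5 mM 3-AT, E. coli USO cells with a HIS3 reporter, site 19 bp from the promoter, grew 48 hours at 37°C to select Caulobacter ParB libraries randomised at four specificity codons. Plasmids from before and after were Illumina-sequenced, with three replicate libraries pooled and variants under 10 reads left out. Fitness is the log change in variant-to-wild-type read ratio, rescaled against cognate and non-cognate.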

| Variant | one-hybrid fitness for binding parS DNA |
| --- | --- |
| QWPW | ≤ 0.2 |
| QSIM | ≤ 0.2 |
| YPAF | ≤ 0.2 |
| ANIP | ≤ 0.2 |
| NGIG | ≤ 0.2 |
| AHPP | ≤ 0.2 |
| DITT | ≤ 0.2 |
| SYRS | ≤ 0.2 |
| ITMS | ≤ 0.2 |
| EFPR | ≤ 0.2 |
| HEHQ | ≤ 0.2 |
| TRQN | ≤ 0.2 |
| YQPS | ≤ 0.2 |
| GHKT | ≤ 0.2 |
| RAIQ | ≤ 0.2 |
| DAQE | ≤ 0.2 |
| WTRL | ≤ 0.2 |
| CKHC | ≤ 0.2 |
| PESI | ≤ 0.2 |
| SYPN | ≤ 0.2 |
| VCTN | ≤ 0.2 |
| TMNC | ≤ 0.2 |
| GGVG | ≤ 0.2 |
| EQNT | ≤ 0.2 |

| Variant | one-hybrid fitness for binding parS DNA |
| --- | --- |
| QVNQ | ≤ 0.2 |
| SLCL | ≤ 0.2 |
| KLRS | ≤ 0.2 |
| VLVS | ≤ 0.2 |
| PAAM | ≤ 0.2 |
| MYST | ≤ 0.2 |
| REPQ | ≤ 0.2 |
| HVND | ≤ 0.2 |
| CCFR | ≤ 0.2 |
| EDNV | ≤ 0.2 |
| QWLP | ≤ 0.2 |
| TNMD | ≤ 0.2 |
| RREE | ≤ 0.2 |
| QSQF | ≤ 0.2 |
| IKDS | ≤ 0.2 |
| NLYC | ≤ 0.2 |
| IVCC | ≤ 0.2 |
| RNID | ≤ 0.2 |
| QPRM | ≤ 0.2 |
| RGYT | 0.475 |
| YARI | ≤ 0.2 |
| IDNL | ≤ 0.2 |
| STAF | ≤ 0.2 |
| DNIT | ≤ 0.2 |

| Variant | one-hybrid fitness for binding parS DNA |
| --- | --- |
| QRYG | ≤ 0.2 |
| HFVY | ≤ 0.2 |
| GYGF | ≤ 0.2 |
| RPPK | ≤ 0.2 |
| SYTG | ≤ 0.2 |
| HSWL | ≤ 0.2 |
| KTAQ | ≤ 0.2 |
| GGSS | ≤ 0.2 |
| LSGT | ≤ 0.2 |
| QSRL | ≤ 0.2 |
| YLRW | ≤ 0.2 |
| CLWS | ≤ 0.2 |
| PWSV | ≤ 0.2 |
| QVAA | ≤ 0.2 |
| SLFD | ≤ 0.2 |
| DSNR | ≤ 0.2 |
| PEDN | ≤ 0.2 |
| ENFR | ≤ 0.2 |
| LLFS | ≤ 0.2 |
| TLPE | ≤ 0.2 |
| NITL | ≤ 0.2 |
| CQKC | ≤ 0.2 |
| QLYG | ≤ 0.2 |
| QGYG | ≤ 0.2 |

| Variant | one-hybrid fitness for binding parS DNA |
| --- | --- |
| PSKK | ≤ 0.2 |
| SPAG | ≤ 0.2 |
| MQVS | ≤ 0.2 |
| RPKS | ≤ 0.2 |
| RQAN | 0.419 |
| VNAT | ≤ 0.2 |
| MHQG | ≤ 0.2 |
| QLVN | ≤ 0.2 |
| ASRA | ≤ 0.2 |
| NIVG | ≤ 0.2 |
| MLCT | ≤ 0.2 |
| ACQK | ≤ 0.2 |
| RDMA | ≤ 0.2 |
| PGTR | ≤ 0.2 |
| SPTR | ≤ 0.2 |
| KTYV | ≤ 0.2 |
| QMHD | ≤ 0.2 |
| QAPF | ≤ 0.2 |
| RLLI | ≤ 0.2 |
| TMAA | ≤ 0.2 |
| TMRF | ≤ 0.2 |
| SSWH | ≤ 0.2 |
| ESSM | ≤ 0.2 |
| ADLT | ≤ 0.2 |

| Variant | one-hybrid fitness for binding parS DNA |
| --- | --- |
| GRYT | ≤ 0.2 |
| PSGI | ≤ 0.2 |
| QDAK | ≤ 0.2 |
| CIQL | ≤ 0.2 |
| SKYE | ≤ 0.2 |
| FLCC | ≤ 0.2 |
| YLYF | ≤ 0.2 |
| DGPD | ≤ 0.2 |
| MKDG | ≤ 0.2 |
| VAGT | ≤ 0.2 |
| RRLQ | ≤ 0.2 |
| HKMV | ≤ 0.2 |
| YLAV | ≤ 0.2 |
| RILR | ≤ 0.2 |
| TPRW | ≤ 0.2 |
| RNQL | ≤ 0.2 |
| PLYS | ≤ 0.2 |
| YRGG | 0.202 |
| PYNS | ≤ 0.2 |
| QNAV | ≤ 0.2 |
| TKTI | ≤ 0.2 |
| MAGG | ≤ 0.2 |
| VKGA | ≤ 0.2 |
| VRQQ | ≤ 0.2 |

| Variant | one-hybrid fitness for binding parS DNA |
| --- | --- |
| QVGM | ≤ 0.2 |
| MNAI | ≤ 0.2 |
| SRFP | ≤ 0.2 |
| YNSS | ≤ 0.2 |
| YRLQ | ≤ 0.2 |
| MYYL | ≤ 0.2 |
| NNSG | ≤ 0.2 |
| DRQQ | ≤ 0.2 |
| ATHE | ≤ 0.2 |
| MFYS | ≤ 0.2 |
| NDAG | ≤ 0.2 |
| TMHG | ≤ 0.2 |
| SGQP | ≤ 0.2 |
| ARLH | ≤ 0.2 |
| PHLR | ≤ 0.2 |
| CMLA | ≤ 0.2 |
| PGGY | ≤ 0.2 |
| EAPC | ≤ 0.2 |
| SKDF | ≤ 0.2 |
| RYSI | ≤ 0.2 |
| DCIR | ≤ 0.2 |
| QVAV | ≤ 0.2 |
| SPLH | ≤ 0.2 |
| IKRW | ≤ 0.2 |

| Variant | one-hybrid fitness for binding parS DNA |
| --- | --- |
| VDSS | ≤ 0.2 |
| GVHR | ≤ 0.2 |
| SDAW | ≤ 0.2 |
| FSHN | ≤ 0.2 |
| LNGR | ≤ 0.2 |
| DPYR | ≤ 0.2 |
| LYTS | ≤ 0.2 |
| YHHC | ≤ 0.2 |
| NVRC | ≤ 0.2 |
| GLCE | ≤ 0.2 |
| VVRK | ≤ 0.2 |
| WLKM | ≤ 0.2 |
| AMCS | ≤ 0.2 |
| RHWD | ≤ 0.2 |
| RAIV | ≤ 0.2 |
| CMCR | ≤ 0.2 |
| IVLA | ≤ 0.2 |
| QTSI | ≤ 0.2 |
| VSEE | ≤ 0.2 |
| VELG | ≤ 0.2 |
| NALH | ≤ 0.2 |
| RHFT | 0.707 |
| KMYL | ≤ 0.2 |
| GQLV | ≤ 0.2 |

| Variant | one-hybrid fitness for binding parS DNA |
| --- | --- |
| QEKC | ≤ 0.2 |
| SDCR | ≤ 0.2 |
| PTTF | ≤ 0.2 |
| VRHV | ≤ 0.2 |
| AHQN | ≤ 0.2 |
| VLVF | ≤ 0.2 |
| STWI | ≤ 0.2 |
| FTSG | ≤ 0.2 |
| RSKT | 0.796 |
| LAPW | ≤ 0.2 |
| VGEL | ≤ 0.2 |
| QVFA | ≤ 0.2 |
| HFNG | ≤ 0.2 |
| YRSV | ≤ 0.2 |
| GYFR | ≤ 0.2 |
| EKTY | ≤ 0.2 |
| SNAM | ≤ 0.2 |
| LFSD | ≤ 0.2 |
| NYNH | ≤ 0.2 |
| SEHM | ≤ 0.2 |
| SHQR | ≤ 0.2 |
| DAAK | ≤ 0.2 |
| YERT | ≤ 0.2 |
| MRMA | ≤ 0.2 |

| Variant | one-hybrid fitness for binding parS DNA |
| --- | --- |
| PKSR | ≤ 0.2 |
| NFMF | ≤ 0.2 |
| VDCW | ≤ 0.2 |
| GTMG | ≤ 0.2 |
| HHRK | ≤ 0.2 |
| GMVC | ≤ 0.2 |
| TEFL | ≤ 0.2 |
| DMSG | ≤ 0.2 |
| QTKR | 0.252 |
| GRVR | ≤ 0.2 |
| NYPS | ≤ 0.2 |
| SHQC | ≤ 0.2 |
| SGHS | ≤ 0.2 |
| HVWR | ≤ 0.2 |
| QPTM | ≤ 0.2 |
| HALP | ≤ 0.2 |
| ELCI | ≤ 0.2 |
| RCGL | ≤ 0.2 |
| WMPT | ≤ 0.2 |
| ASIH | ≤ 0.2 |
| VLDR | ≤ 0.2 |
| TVGL | ≤ 0.2 |
| NVQT | ≤ 0.2 |
| MRHE | ≤ 0.2 |

| Variant | one-hybrid fitness for binding parS DNA |
| --- | --- |
| CVIC | ≤ 0.2 |
| VWSI | ≤ 0.2 |
| QEKG | ≤ 0.2 |
| ILYS | ≤ 0.2 |
| LVVC | ≤ 0.2 |
| CHRC | ≤ 0.2 |
| TLNF | ≤ 0.2 |
| VYTI | ≤ 0.2 |
| QPWI | ≤ 0.2 |
| DSHR | ≤ 0.2 |
| RCMA | 0.609 |
| HAPQ | ≤ 0.2 |
| NKTK | ≤ 0.2 |
| KARL | ≤ 0.2 |
| GHLR | ≤ 0.2 |
| EMRC | ≤ 0.2 |
| HMAG | ≤ 0.2 |
| RQAE | ≤ 0.2 |
| GKNG | ≤ 0.2 |
| RFLP | ≤ 0.2 |
| CMMP | ≤ 0.2 |
| MWAS | ≤ 0.2 |
| TTIW | ≤ 0.2 |
| YRAH | ≤ 0.2 |

| Variant | one-hybrid fitness for binding parS DNA |
| --- | --- |
| HDHL | ≤ 0.2 |
| PGAS | ≤ 0.2 |
| QSSR | ≤ 0.2 |
| QYFV | ≤ 0.2 |
| LQPT | ≤ 0.2 |
| DSNT | ≤ 0.2 |
| LQLL | ≤ 0.2 |
| TKAR | ≤ 0.2 |
| HSPL | ≤ 0.2 |
| EAWY | ≤ 0.2 |
| RMWW | 0.227 |
| NPTW | ≤ 0.2 |
| MDTN | ≤ 0.2 |
| SNMR | ≤ 0.2 |
| NAKW | ≤ 0.2 |
| DIPG | ≤ 0.2 |
| IRCL | ≤ 0.2 |
| VRPK | ≤ 0.2 |
| QSWM | ≤ 0.2 |
| APST | ≤ 0.2 |
| RSHE | ≤ 0.2 |
| LIKS | ≤ 0.2 |
| APRP | ≤ 0.2 |
| NQFS | ≤ 0.2 |

| Variant | one-hybrid fitness for binding parS DNA |
| --- | --- |
| ISRG | ≤ 0.2 |
| AMYR | ≤ 0.2 |
| TKWS | ≤ 0.2 |
| GAFT | ≤ 0.2 |
| PTTK | ≤ 0.2 |
| AMRD | ≤ 0.2 |
| NLMR | ≤ 0.2 |
| YAKT | ≤ 0.2 |
| KAAI | ≤ 0.2 |
| WSPD | ≤ 0.2 |
| PTWK | ≤ 0.2 |
| EQTY | ≤ 0.2 |
| TESF | ≤ 0.2 |
| HREY | ≤ 0.2 |
| ECNR | ≤ 0.2 |
| KNHI | ≤ 0.2 |
| KSNY | ≤ 0.2 |
| LTHS | ≤ 0.2 |
| MPRV | ≤ 0.2 |
| TITA | ≤ 0.2 |
| RYQK | ≤ 0.2 |
| SRFR | ≤ 0.2 |
| DCMT | ≤ 0.2 |
| CGSH | ≤ 0.2 |

| Variant | one-hybrid fitness for binding parS DNA |
| --- | --- |
| NVWF | ≤ 0.2 |
| RFQY | 0.462 |
| NTAC | ≤ 0.2 |
| EKKL | ≤ 0.2 |
| HTTC | ≤ 0.2 |
| SASY | ≤ 0.2 |
| ASDV | ≤ 0.2 |
| YLNG | ≤ 0.2 |
| TECC | ≤ 0.2 |
| LTWG | ≤ 0.2 |
| QMFD | ≤ 0.2 |
| SEQG | ≤ 0.2 |
| APQR | ≤ 0.2 |
| YRND | ≤ 0.2 |
| CSEG | ≤ 0.2 |
| EWDS | ≤ 0.2 |
| RNKA | 0.541 |
| IWLF | ≤ 0.2 |
